Reference: PubChem BioAssay AID651820 (National Center for Advancing Translational Sciences (NCATS), 2012)
Screen size: about 340,000 compounds; about 12,000 (3.5%) were called active. Inconclusive results, whose numbers are uncertain, are shown with a selection of clear calls. The call rests on the fitted dose curve; in most records, active means well fitted inhibition curve with a large enough effect; inconclusive means small, poorly fitted or top-dose-only effect, or another doubt; inactive means no such curve, though single readings can be large or run the other way. Potencies of inconclusive entries are left out as doubtful fits.

Test: qHTS Assay for Inhibitors of Hepatitis C Virus (HCV)
Settings: Huh7.5.1 HCVcc-Cre (HCVcc is cell-culture hepatitis C virus) infection, luciferase reporter, 44 h; activity change, negative = inhibition: at 41.8 µM (top of the series) unless noted
How it was run: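 Seed cells (1,000/well) for 4 h; treat with compound and infect with HCVcc-Cre, moi about 0.5. Incubate 44 h, then detect luciferase activity.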
On the % scale 0 is the no-effect control and ±100 the full control effect; potency means the concentration at half of the fitted maximal effect; tags describe the fitted curve by direction and shape.

Row | SMILES | Potency | activity change, negative = inhibition
1 | O=C(NC1CCCCC1)N1Cc2ccccc2-n2nncc2C1 | inconclusive [inhibitor, single point] | –
2 | COc1ccc(CN(C)CC(O)COC(c2ccc(OC)cc2)c2ccc(OC)cc2)cc1 (configuration not stated) | inconclusive [inhibitor, partial curve] | –
3 | C#CCOCCOCCOCCNc1nc(N2CCN(C(=O)CCCCCCCCCCNC(=O)Cn3cc(CCCCCN)nn3)CC2)nc(N2CCN(C(=O)CCCCCCCCCCNC(=O)[C@H]([C@@H](C)CC)n3cc(CCCCCN)nn3)CC2)n1 | inconclusive [inhibitor, partial curve] | –
4 | O=C(NCCCO)c1cc2c([nH]c3ccccc32)c(-c2ccccc2)n1 | active: 10 µM | –
5 | CCC(C(=O)OCC(=O)Nc1cc(C)ccc1OC)c1ccccc1 (configuration not stated) | inconclusive [inhibitor, single point] | –
6 | O=C(NCC1CCCO1)c1cccc2c1C(=O)c1ccc(N3CCC(Cc4ccccc4)CC3)cc1S2(=O)=O (configuration not stated) | inconclusive [inhibitor, partial curve] | –
7 | COc1ccccc1-n1nnnc1S(=O)(=O)Cc1ccc(Cl)cc1 | inconclusive [inhibitor, single point] | –
8 | CC1CCN(C(=S)c2cn(Cc3ccccc3F)c3ccccc23)CC1 | inconclusive [inhibitor, single point] | –
9 | Cc1ccc2c(c1)[C@H]1[C@H](CO2)[C@H](c2ccccc2)[C@]2(C)C(=O)Nc3ccc(Cl)cc3C(=O)N12 | inconclusive [inhibitor, single point] | –
10 | O=C(CN1c2cccc3cccc(c23)S1(=O)=O)NC1CCCCC1 | inconclusive [inhibitor, partial curve, poor fit] | –
11 | CCCCOc1cccc(C(=O)Nc2ccccc2N2CCCC2)c1 | active: 12.6 µM | –
12 | O=C(CN1CCOCC1)Nc1ccc(Cl)cc1 | – | inactive: 0.0798%
13 | O=c1cc(-c2ccccc2)[nH]n1-c1nc2ccccc2[nH]1 | inconclusive [inhibitor, partial curve] | –
14 | COC(=O)c1c(NC(=O)COC(=O)CCc2ccc(S(=O)(=O)N3CCOCC3)cc2)sc2c1CCC2 | inconclusive [inhibitor, partial curve] | –
15 | CC(=O)Nc1ccc(S(=O)(=O)N(C)CC(=O)OCC(=O)c2ccc[nH]2)cc1 | – | inactive: 27.8%
16 | Cc1ccc(S(=O)(=O)N(C)C)cc1-n1c(SCC(=O)Nc2ccc(F)cc2)nc2ccccc2c1=O | inconclusive [inhibitor, full curve] | –
17 | O=C(NCCN1CCN(S(=O)(=O)c2ccccc2)CC1)C(=O)Nc1ccc(F)cc1 | – | inactive: -11.9%
18 | COc1ccc(N(C(=O)c2cnccn2)C(C(=O)NC2CCCCC2)c2ccc(O)cc2)cc1 (configuration not stated) | inconclusive [inhibitor, single point] | –
19 | CC1(c2ccc3ccccc3c2)NC(=O)N(CC(=O)N2CCN(c3ccccc3O)CC2)C1=O (configuration not stated) | inconclusive [inhibitor, single point] | –
20 | COc1ccc(OCC(O)Cn2c(N3CCCCC3)nc3c2c(=O)n(C)c(=O)n3C)cc1 (configuration not stated) | inconclusive [inhibitor, single point] | –
21 | O=C(CSc1ccc([N+](=O)[O-])cc1)Nc1ccccc1N1CCOCC1 | inconclusive [inhibitor, partial curve] | –
22 | O=c1cc(CN2CCN(c3ccc(O)cc3)CC2)nc2scc(-c3ccccc3)n12 | inconclusive [inhibitor, single point] | –
23 | CCS(=O)(=O)c1ccc(C(=O)Nc2ccccc2OC)c(Cl)c1Cl | – | inactive: 9.95%

Row | SMILES | Potency | activity change, negative = inhibition
24 | COCC(C)NC(=O)C1CC(=O)N(c2ccc(C)cc2)C1 (configuration not stated) | – | inactive: 21.9%
25 | O=C(CN1CCCC1)Nc1sc2c(c1C(=O)Nc1ccccc1)CCCC2 | inconclusive [inhibitor, partial curve] | –
26 | CN(C(=O)COC(=O)c1cc(-c2ccc(Cl)s2)nc2ccccc12)C1CCS(=O)(=O)C1 (configuration not stated) | active: 10 µM | –
27 | CCOCCc1c(O)nc(SCCOc2ccc(C)c(C)c2)[nH]c1=O | – | inactive: -7.53%
28 | Cn1c(=O)cc(SCC(=O)NCCCN2CCN(c3ccc(F)cc3)CC2)c2ccccc21 | inconclusive [inhibitor, partial curve] | –
29 | CCOc1ccc2nc(SCC(=O)NCC3CCCO3)c(C#N)cc2c1 (configuration not stated) | – | inactive: -11.5%
30 | Cc1cc(Cl)ccc1OCCCC(=O)Nc1cc(S(=O)(=O)N2CCOCC2)ccc1N1CCOCC1 | inconclusive [inhibitor, single point] | –
31 | CN(C)c1oc(-c2cccs2)nc1C#N | inconclusive [inhibitor, partial curve] | –
32 | Cc1cc(Cl)ccc1OCC(=O)NC1CCCC1 | inconclusive [inhibitor, partial curve] | –
33 | Cc1cc(N2CCC(C)CC2)nc(-c2ccccc2O)n1 | inconclusive [inhibitor, single point] | –
34 | Cc1ccnc(NC(=O)c2cccc3ccccc23)c1 | – | inactive: -5.84%
35 | COCCCNc1c2c3c(cccc3[nH]c1=O)C(=O)c1ccccc1-2 | inconclusive [inhibitor, single point] | –
36 | COc1ccc(C(=O)N/N=C(\C)CC(=O)NC2CCCCC2)c(OC)c1 | – | inactive: 22.3%
37 | Cc1n[nH]c(C)c1S(=O)(=O)N(CC(=O)Nc1ccc2c(c1)OCCO2)c1ccc(C(C)C)cc1 | inconclusive [inhibitor, partial curve] | –
38 | CN1CCN(NC(=O)c2cc(-c3ccc(Cl)s3)nc3ccccc23)CC1 | inconclusive [inhibitor, partial curve] | –
39 | Cc1cccc(Oc2nc(-c3ccccc3)cc(C)c2S(C)(=O)=O)c1C | active: 10 µM | –
40 | CN(C(=O)c1cccc(NC(=O)Cc2cccc(NC(=O)C3CCN(C(=O)CCc4ccccc4)CC3)c2)c1)C1CC1 | inconclusive [inhibitor, single point] | –
41 | S=C1Nc2ccccc2Sc2ccccc21 | – | inactive: -8.86%
42 | COc1ccc(CCNC(=O)CCc2cn(C)c3ccccc23)c(OC)c1OC | inconclusive [inhibitor, full curve, poor fit] | –
43 | COc1ccc(N=C2SCC(=O)N2CCc2ccc(OC)c(OC)c2)cc1 | inconclusive [inhibitor, single point] | –
44 | O=C(Cc1coc2ccc3ccccc3c12)NCc1ccccc1 | active: 10 µM | –
45 | COc1ccc(CCNC(=O)Cc2cc(OC)c(OC)cc2Br)cc1OC | – | inactive: 23%
46 | O=C1Nc2ccc3c(c2C1=Cc1cc2c(cc1Br)OCO2)OCO3 | inconclusive [inhibitor, partial curve] | –

Row | SMILES | Potency | activity change, negative = inhibition
47 | CC(OC(=O)c1ccccc1Oc1ccccc1)C(=O)NC1CC1 (configuration not stated) | inconclusive [inhibitor, single point] | –
48 | CC(C)=CCC/C(C)=C/CNC(=O)C[C@H]1C[C@H](C(=O)N2CCCCC2)[C@@]2(C)c3[nH]c4cc(-c5ccco5)ccc4c3CCN2C1=O | – | inactive: -29.3%
49 | Cc1cccc(-n2c(SCC(=O)N3CCN(c4ccccn4)CC3)nnc2N2CCOCC2)c1 | – | inactive: -3.81%
50 | COc1ccc(C(=O)NOCc2ccccc2)cc1 | – | inactive: -5.31%
51 | Cc1ccc(-n2cnc(=O)c3cccnc32)cc1 | – | inactive: -3.71%
52 | CCN1CCN(c2cc(C)c3cc(NC(=O)c4cccs4)ccc3n2)CC1 | inconclusive [inhibitor, full curve, poor fit] | –
53 | CCn1c(SCC(=O)c2[nH]c(C)c(C(C)=O)c2C)nnc1-c1cccs1 | inconclusive [inhibitor, partial curve] | –
54 | Cc1cccc(NC(=O)CN2CCN(C(=O)CN3C(=O)NC4(CC(C)CC(C)(C)C4)C3=O)CC2)c1C (configuration not stated) | inconclusive [inhibitor, single point] | –
55 | COc1ccc(N2CCN(c3oc(Cc4cccc5ccccc45)nc3C#N)CC2)cc1 | inconclusive [inhibitor, partial curve] | –
56 | CCCCNc1c(-c2ccc(OC)c(SC(C)CC)c2)nc2cnccn12 (configuration not stated) | inconclusive [inhibitor, partial curve] | –
57 | Cc1ccc(-n2nnnc2SCc2nc3sc(C)c(C)c3c(=O)[nH]2)cc1 | inconclusive [inhibitor, single point] | –
58 | Cc1c(C(=O)Nc2ccc(N3CCOCC3)cc2)cccc1[N+](=O)[O-] | inconclusive [inhibitor, partial curve, poor fit] | –
59 | Cc1onc(-c2ccccc2)c1C(=O)OCC(=O)NC(C)c1ccc(Cl)cc1 (configuration not stated) | inconclusive [inhibitor, partial curve] | –
60 | CN(Cc1ccccc1Cl)C(=O)CCNC(=O)c1ccco1 | inconclusive [inhibitor, single point] | –
61 | Cc1cc(C)cc(Oc2ccccc2C=O)c1 | inconclusive [inhibitor, single point] | –
62 | Cc1ccc(S(=O)(=O)NCc2ccc(C(=O)N3CCc4ccccc4C3)cc2)cc1 | inconclusive [inhibitor, single point] | –
63 | C=C(C)CN(CC)c1nc(N)c(C#N)c(CC#N)c1C#N | – | inactive: -3.33%
64 | Cc1nn(-c2ccccc2)c(Cl)c1/C=N/NC(=O)c1cccc(S(=O)(=O)N2CCCC2)c1 | inconclusive [inhibitor, full curve, poor fit] | –
65 | O=S1(=O)NC(CC2=CCCCC2)C2CCCCC2O1 (configuration not stated) | – | inactive: 7.24%
66 | CC(=O)N1CCCc2cc(S(=O)(=O)N3CCCC(C(=O)N4CCN(c5cccc(Cl)c5)CC4)C3)ccc21 (configuration not stated) | active: 3.16 µM | –
67 | Cc1cc(-n2nc(C)cc2C)n2nc(C)c(-c3ccccc3)c2n1 | inconclusive [inhibitor, single point] | –
